Test results published in the supplement of paper PMC8728848.
This is one part of the list.

What was measured:
Assay in all cases: glycan array binding signal (z-score within array); higher = stronger binding
Settings in all cases: glycan notation: IUPAC condensed, linker removed
GalNAc(b1-4)Gal(b1-4)Glc = molecular target: GalNAc(b1-4)Gal(b1-4)Glc
How it was run: (§1)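 The binding signal is a Z-score computed within each array and averaged over linkers. Arrays of the same protein sequence at different concentrations or buffers were also averaged together. Data originate from 3228 arrays in the Consortium for Functional Glycomics database, kept only where the protein sequence was available.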

GalNAc(b1-4)GlcNAc = molecular target: GalNAc(b1-4)GlcNAc
How it was run: as §1

[1] = molecular target: GalNAc(b1-4)GlcNAc(b1-2)Man
How it was run: as §1

[2] = molecular target: GalNAc(b1-4)GlcNAc(b1-2)Man(a1-3)[GalNAc(b1-4)GlcNAc(b1-2)Man(a1-6)]Man(b1-4)GlcNAc(b1-4)GlcNAc
How it was run: as §1

[3] = molecular target: GalNAc(b1-4)GlcNAc(b1-3)GalNAc(b1-4)GlcNAc
How it was run: as §1

GalNAc(b1-4)GlcNAc6S = molecular target: GalNAc(b1-4)GlcNAc6S
How it was run: as §1

GalNAc(b1-6)GalNAc = molecular target: GalNAc(b1-6)GalNAc
How it was run: as §1

GalNAc3S(b1-4)GlcNAc = molecular target: GalNAc3S(b1-4)GlcNAc
How it was run: as §1

GalNAc3S(b1-4)GlcNAc3S = molecular target: GalNAc3S(b1-4)GlcNAc3S
How it was run: as §1

[4] = molecular target: GalNAc3S(b1-4)[Fuc(a1-3)]GlcNAc
How it was run: as §1

GalNAc4S6S(b1-4)GlcNAc = molecular target: GalNAc4S6S(b1-4)GlcNAc
How it was run: as §1

GalNAc6S(b1-4)GlcNAc = molecular target: GalNAc6S(b1-4)GlcNAc
How it was run: as §1

Glc(a1-4)Glc = molecular target: Glc(a1-4)Glc
How it was run: as §1

[5] = molecular target: Glc(a1-4)Glc(a1-4)Glc(a1-4)Glc
How it was run: as §1

Glc(a1-6)Glc(a1-6)Glc = molecular target: Glc(a1-6)Glc(a1-6)Glc
How it was run: as §1

[6] = molecular target: Glc(a1-6)Glc(a1-6)Glc(a1-6)Glc
How it was run: as §1

Glc(b1-4)Glc = molecular target: Glc(b1-4)Glc
How it was run: as §1

Glc(b1-6)Glc = molecular target: Glc(b1-6)Glc
How it was run: as §1

GlcA(b1-3)Gal = molecular target: GlcA(b1-3)Gal
How it was run: as §1

GlcA(b1-3)GlcNAc = molecular target: GlcA(b1-3)GlcNAc
How it was run: as §1

GlcA(b1-6)Gal = molecular target: GlcA(b1-6)Gal
How it was run: as §1

[7] = molecular target: GlcA3S(b1-3)Gal(b1-4)GlcNAc(b1-2)Man
How it was run: as §1

[8] = molecular target: GlcA3S(b1-3)Gal(b1-4)GlcNAc(b1-3)Gal(b1-4)Glc
How it was run: as §1

[9] = molecular target: GlcNAc(a1-3)Gal(b1-4)GlcNAc
How it was run: as §1

[10] = molecular target: GlcNAc(a1-4)Gal(b1-3)GlcNAc
How it was run: as §1

[11] = molecular target: GlcNAc(a1-4)Gal(b1-4)GalNAc
How it was run: as §1

[12] = molecular target: GlcNAc(a1-4)Gal(b1-4)GlcNAc
How it was run: as §1

[13] = molecular target: GlcNAc(a1-4)Gal(b1-4)GlcNAc(b1-3)Gal(b1-4)Glc
How it was run: as §1

[14] = molecular target: GlcNAc(a1-4)Gal(b1-4)GlcNAc(b1-3)Gal(b1-4)GlcNAc
How it was run: as §1

[15] = molecular target: GlcNAc(a1-4)Gal(b1-4)GlcNAc(b1-3)Gal(b1-4)GlcNAc(b1-3)Gal(b1-4)GlcNAc
How it was run: as §1

[16] = molecular target: GlcNAc(a1-4)Gal(b1-4)GlcNAc(b1-3)Gal(b1-4)[Fuc(a1-3)]GlcNAc(b1-3)Gal(b1-4)[Fuc(a1-3)]GlcNAc
How it was run: as §1

[17] = molecular target: GlcNAc(a1-6)Gal(b1-4)GlcNAc
How it was run: as §1

[18] = molecular target: GlcNAc(b1-2)Gal(b1-3)GalNAc
How it was run: as §1

[19] = molecular target: GlcNAc(b1-2)Man(a1-3)[GlcNAc(b1-2)Man(a1-6)]Man(b1-4)GlcNAc(b1-4)GlcNAc
How it was run: as §1

[20] = molecular target: GlcNAc(b1-2)Man(a1-3)[GlcNAc(b1-2)Man(a1-6)]Man(b1-4)GlcNAc(b1-4)[Fuc(a1-6)]GlcNAc
How it was run: as §1

[21] = molecular target: GlcNAc(b1-2)Man(a1-3)[GlcNAc(b1-4)][GlcNAc(b1-2)Man(a1-6)]Man(b1-4)GlcNAc(b1-4)GlcNAc
How it was run: as §1

[22] = molecular target: GlcNAc(b1-2)Man(a1-3)[GlcNAc(b1-4)][GlcNAc(b1-2)Man(a1-6)]Man(b1-4)GlcNAc(b1-4)[Fuc(a1-6)]GlcNAc
How it was run: as §1

[23] = molecular target: GlcNAc(b1-2)[GlcNAc(b1-4)]Man(a1-3)[GlcNAc(b1-2)Man(a1-6)]Man(b1-4)GlcNAc(b1-4)GlcNAc
How it was run: as §1

[24] = molecular target: GlcNAc(b1-2)[GlcNAc(b1-4)]Man(a1-3)[GlcNAc(b1-4)][GlcNAc(b1-2)Man(a1-6)]Man(b1-4)GlcNAc(b1-4)GlcNAc
How it was run: as §1

[25] = molecular target: GlcNAc(b1-2)[GlcNAc(b1-4)]Man(a1-3)[GlcNAc(b1-4)][GlcNAc(b1-2)[GlcNAc(b1-6)]Man(a1-6)]Man(b1-4)GlcNAc(b1-4)GlcNAc
How it was run: as §1

[26] = molecular target: GlcNAc(b1-2)[GlcNAc(b1-4)]Man(a1-3)[GlcNAc(b1-4)][GlcNAc(b1-2)[GlcNAc(b1-6)]Man(a1-6)]Man(b1-4)GlcNAc(b1-4)[Fuc(a1-6)]GlcNAc
How it was run: as §1

[27] = molecular target: GlcNAc(b1-2)[GlcNAc(b1-6)]Man(a1-6)[GlcNAc(b1-2)Man(a1-3)]Man(b1-4)GlcNAc(b1-4)GlcNAc
How it was run: as §1

[28] = molecular target: GlcNAc(b1-2)[GlcNAc(b1-6)]Man(a1-6)[GlcNAc(b1-2)Man(a1-3)]Man(b1-4)GlcNAc(b1-4)[Fuc(a1-6)]GlcNAc
How it was run: as §1

[29] = molecular target: GlcNAc(b1-2)[GlcNAc(b1-6)]Man(a1-6)[GlcNAc(b1-2)Man(a1-3)][GlcNAc(b1-4)]Man(b1-4)GlcNAc(b1-4)GlcNAc
How it was run: as §1

[30] = molecular target: GlcNAc(b1-2)[GlcNAc(b1-6)]Man(a1-6)[GlcNAc(b1-4)][GlcNAc(b1-2)Man(a1-3)]Man(b1-4)GlcNAc(b1-4)GlcNAc
How it was run: as §1

B1: Gal 1 (Mus musculus), P16045 (protein)
chain: MACGLVASNLNLKPGECLKVRGEVASDAKSFVLNLGKDSNNLCLHFNPRFNAHGDANTIVCNTKEDGTWGTEHREPAFPFQPGSITEVCITFDQADLTIKLPDGHEFKFPNRLNMEAINYMAADGDFKIKCVAFE
Q: What does the source list for B1?
A: glycan array binding signal (z-score) (GalNAc(b1-4)Gal(b1-4)Glc): -0.088; glycan array binding signal (z-score) (GalNAc(b1-4)GlcNAc): -0.332; glycan array binding signal (z-score) [1]: -0.303; glycan array binding signal (z-score) [2]: -0.127; glycan array binding signal (z-score) [3]: -0.415; glycan array binding signal (z-score) (GalNAc(b1-4)GlcNAc6S): -0.452; glycan array binding signal (z-score) (GalNAc(b1-6)GalNAc): -0.395; glycan array binding signal (z-score) (GalNAc3S(b1-4)GlcNAc): -0.413; glycan array binding signal (z-score) (GalNAc3S(b1-4)GlcNAc3S): -0.244; glycan array binding signal (z-score) [4]: -0.454; glycan array binding signal (z-score) (GalNAc4S6S(b1-4)GlcNAc): -0.26; glycan array binding signal (z-score) (GalNAc6S(b1-4)GlcNAc): -0.484; glycan array binding signal (z-score) (Glc(a1-4)Glc): -0.341; glycan array binding signal (z-score) [5]: -0.076; glycan array binding signal (z-score) (Glc(a1-6)Glc(a1-6)Glc): -0.157; glycan array binding signal (z-score) [6]: -0.114; glycan array binding signal (z-score) (Glc(b1-4)Glc): -0.292; glycan array binding signal (z-score) (Glc(b1-6)Glc): -0.16; glycan array binding signal (z-score) (GlcA(b1-3)Gal): -0.156; glycan array binding signal (z-score) (GlcA(b1-3)GlcNAc): 0.529; glycan array binding signal (z-score) (GlcA(b1-6)Gal): -0.204; glycan array binding signal (z-score) [7]: 0.968; glycan array binding signal (z-score) [8]: 0.769; glycan array binding signal (z-score) [9]: -0.351; glycan array binding signal (z-score) [10]: -0.437; glycan array binding signal (z-score) [11]: -0.241; glycan array binding signal (z-score) [12]: -0.325; glycan array binding signal (z-score) [13]: -0.39; glycan array binding signal (z-score) [14]: -0.374; glycan array binding signal (z-score) [15]: -0.404; glycan array binding signal (z-score) [16]: -0.015; glycan array binding signal (z-score) [17]: -0.252; glycan array binding signal (z-score) [18]: -0.318; glycan array binding signal (z-score) [19]: -0.326; glycan array binding signal (z-score) [20]: -0.306; glycan array binding signal (z-score) [21]: -0.353; glycan array binding signal (z-score) [22]: -0.412; glycan array binding signal (z-score) [23]: 0.003; glycan array binding signal (z-score) [24]: -0.366; glycan array binding signal (z-score) [25]: -0.288; glycan array binding signal (z-score) [26]: -0.276; glycan array binding signal (z-score) [27]: -0.385; glycan array binding signal (z-score) [28]: 0.049; glycan array binding signal (z-score) [29]: -0.232; glycan array binding signal (z-score) [30]: -0.388
